{"source": "ChEMBL document CHEMBL4888484", "about": "“Replenishing the malaria drug discovery pipeline: Screening and hit evaluation of the MMV Hit Generation Library 1 (HGL1) against asexual blood stage Plasmodium falciparum ,using a nano luciferase reporter read-out” (2022)", "note": "Out of some 150,000 compounds screened, about 540 (0.36%) showed an effect of 50% or more. This is one part of the list."}
{"tested_on": "Plasmodium falciparum", "assay": "Primary screen in NF54 nanoGlo assay, in single point, at 2uM, 72h; a lower Z score goes with more inhibition", "assay_type": "functional, Erythrocyte", "conditions": "timepoint 72 hour", "units": {"% Inhibition": "%"}}
{"smiles": "Cn1cc(C(=O)NCC2CCN(Cc3nc4c(F)cccc4[nH]3)CC2)cn1", "% Inhibition": -15, "Z score": 2.17}
{"smiles": "Cc1nc(N2CCN(C/C=C/c3ccccc3)CC2)cc([C@H]2C[C@H](N)C2)n1", "% Inhibition": 3, "Z score": -0.55}
{"smiles": "COc1ccccc1Oc1ccc(N[C@H]2CCN(C)C2=O)cc1F", "% Inhibition": -7, "Z score": 1.25}
{"smiles": "CCn1c(-c2cc(NC(=O)CCc3ccc(OC)cc3)[nH]n2)cc2c(OC)cccc21", "% Inhibition": -3, "Z score": 0.32}
{"smiles": "O=C(NCCc1nc(-c2ccc(Cl)cc2)n[nH]1)C1CCC1c1ccc(F)cc1", "note": "(configuration not stated)", "% Inhibition": -14, "Z score": 1.82}
{"smiles": "Cc1ccc(-c2cc(-c3c4ccccc4cc4ccccc34)c(C#N)c(N)c2C#N)cc1", "% Inhibition": -27, "Z score": 3.21}
{"smiles": "COCCc1nc([C@@H]2CCCO2)n(-c2ccc(C(=O)O)cc2)n1", "% Inhibition": 7, "Z score": -1.33}
{"smiles": "Cn1cccc1-c1noc([C@H]2CCN(S(=O)(=O)c3ccccc3)C2)n1", "% Inhibition": -17, "Z score": 2.29}
{"smiles": "CC[C@H](C)NC(=O)CCN(CCCN1CCOCC1)c1nc(-c2ccc(F)cc2)nc2ccccc12", "% Inhibition": -11, "Z score": 1.4}
{"smiles": "O=C(CCN1CCN(c2ccccc2)CC1)N1CC[C@H](O)C1", "% Inhibition": 10, "Z score": -1.14}
{"smiles": "OCCOC1CCCN(c2ncnc3c2ncn3CC(CO)C2CCOC2)C1", "note": "(configuration not stated)", "% Inhibition": -9, "Z score": 1.23}
{"smiles": "CC(C)S(=O)(=O)CCNC(=O)N1CCC(O)(Cc2ccccc2F)CC1", "% Inhibition": -3, "Z score": 0.46}
{"smiles": "Cc1cccc2[nH]c([C@@H]3CCCN3C(=O)COc3cccnc3)nc12", "% Inhibition": 6, "Z score": -0.84}
{"smiles": "Cn1cnc2c3c(ccc21)N(CC(=O)Nc1nccs1)CCC3", "% Inhibition": -6, "Z score": 0.66}
{"smiles": "COc1c(Cl)cccc1NC(=O)N1CCC[C@@H]1CN1CCCC1", "% Inhibition": -1, "Z score": 0.28}
{"smiles": "C=C1CCC(NC(=O)[C@H]2CCOC2)CC1", "% Inhibition": 13, "Z score": -2.29}
{"smiles": "Cc1cc(C(=O)NCCN2Cc3cc(F)ccc3OCC2=O)c(C)o1", "% Inhibition": -19, "Z score": 2.49}
{"smiles": "C#Cc1cccc(NCc2ccc(NC(=O)OC(C)(C)C)nn2)c1", "% Inhibition": -2, "Z score": 0.42}
{"smiles": "CC(C)Cc1cc(CN2CCN(Cc3ccsc3)[C@@H](CCO)C2)n[nH]1", "% Inhibition": -10, "Z score": 0.89}
{"smiles": "CCOC(=O)c1cnc(-c2ccc(OC)cc2)nc1N(CC)CC", "% Inhibition": 1, "Z score": -0.12}
{"smiles": "COCCN1C[C@H](NC(=O)C2(C#N)CCOCC2)[C@@H](c2ccccc2)C1", "% Inhibition": -7, "Z score": 1.28}
{"smiles": "Cc1cc(C)n(CCCNc2nccnc2C#N)n1", "% Inhibition": -13, "Z score": 2.34}
{"smiles": "Cn1c2c(c(=O)n(C)c1=O)[C@H](c1ccc(Cl)cc1)NC(O)=N2", "% Inhibition": 11, "Z score": -1.34}
{"smiles": "CCC(C)NC(=O)NC1CCN(c2cc(C)cc(C)c2)C1=O", "note": "(configuration not stated)", "% Inhibition": -10, "Z score": 1.5}
{"smiles": "CN1CCN(CCc2cccc(NC(=O)C3CC3c3ccc4ccccc4c3)c2)CC1", "note": "(configuration not stated)", "% Inhibition": 5, "Z score": -0.69}
{"smiles": "COc1ccccc1-c1c(C)nn2c(C(F)(F)F)cc(-c3cccs3)nc12", "% Inhibition": -8, "Z score": 1.05}
{"smiles": "CCOC(=O)c1nc(C(=O)OCC)nc(C(=O)OCC)n1", "% Inhibition": -6, "Z score": 1.24}
{"smiles": "CCOc1ccc([C@@H]2CC(c3ccccc3Cl)=NN2C(=O)CN2CCCCC2)cc1", "% Inhibition": -19, "Z score": 2.72}
{"smiles": "CC1(C)C[C@@H](c2cc(-c3ccc[nH]3)nc(N)c2C#N)CCO1", "% Inhibition": -4, "Z score": 0.87}
{"smiles": "C[C@@H](CC(=O)N1CCc2[nH]c3c(Cl)cccc3c2C1)N1CCOCC1", "% Inhibition": 9, "Z score": -1.63}
{"smiles": "CCN1CCC[C@@H]1CNC(=O)c1ccoc1C", "% Inhibition": -6, "Z score": 1.14}
{"smiles": "CCc1cc([C@@H]2CCCN2C(=O)Nc2cc(C)cc(C)c2)on1", "% Inhibition": -8, "Z score": 1.13}
{"smiles": "Cc1nc(Cn2nnnc2C2CCCC2)sc1C", "% Inhibition": 1, "Z score": -0.19}
{"smiles": "COc1ccc2c(/C=C/c3cc[n+](C)cc3)cn(Cc3ccccc3)c2c1", "% Inhibition": 68, "Z score": -6.36}
{"smiles": "Cc1ccc(Cn2ccc(NC(=O)c3cc(C(C)C)on3)n2)cc1", "% Inhibition": -11, "Z score": 1.26}
{"smiles": "COc1ccc(C2=CCN(C(=O)CCn3ccc4ccccc43)C2)cc1", "% Inhibition": -10, "Z score": 1.32}
{"smiles": "CC(=O)Nc1nc(C(=O)NCc2ccc(C)n2C)cs1", "% Inhibition": -1, "Z score": 0.16}
{"smiles": "C=C(C)CN1CCN(CCCn2ccnc2)CC1", "% Inhibition": -5, "Z score": 0.45}
{"smiles": "CC(NC(=O)NC1CCCCc2cc(Br)ccc21)c1ccn(C)n1", "note": "(configuration not stated)", "% Inhibition": 6, "Z score": -1.01}
{"smiles": "CC1CC2CCCCC2N1c1ncnc2c1ncn2CC1(O)CCOC1", "note": "(configuration not stated)", "% Inhibition": -17, "Z score": 3.38}
{"smiles": "O=C1C[C@H](c2ccc(OCc3ccc(Cl)cc3)cc2)c2cnn(-c3nc4ccccc4s3)c2N1", "% Inhibition": -10, "Z score": 1.64}
{"smiles": "CC[C@H](Nc1nc(COC)nc2c1cnn2C)c1ccnn1C", "% Inhibition": -10, "Z score": 0.99}
{"smiles": "CN1CCC(N2CCC[C@H]2c2nc(-c3ccc(F)cn3)no2)CC1", "% Inhibition": 15, "Z score": -1.76}
{"smiles": "Cc1cc(C(=O)Nc2cccc(-c3nc4ccccc4s3)c2)nn1C", "% Inhibition": -9, "Z score": 1.28}
{"smiles": "CNS(=O)(=O)Cc1ccccc1CNC(=O)c1ccc2c(c1)C(=O)N(Cc1ccccc1)C2=O", "% Inhibition": -8, "Z score": 1.01}
{"smiles": "CCOc1ncccc1C(=O)N1CC[C@H](n2cnc3ccccc32)C1", "% Inhibition": -17, "Z score": 2.21}
{"smiles": "CN(CCn1cnnc1)C(=O)CCn1ccc2cc(Cl)ccc21", "% Inhibition": -8, "Z score": 0.74}
{"smiles": "O=C(c1ccc(=O)n(CCN2CCOCC2)c1)N1CCC(Cc2ccccc2)CC1", "% Inhibition": 6, "Z score": -0.91}
{"smiles": "O=S1(=O)N=C(NC[C@@H](O)Cc2ccccc2)c2ccccc21", "% Inhibition": 39, "Z score": -5.57}
{"smiles": "CCN(CCC#N)C(=O)COc1cccc(F)c1C#N", "% Inhibition": -10, "Z score": 1.35}
{"smiles": "CCc1nc(-c2cccc(NC(=O)c3cccc(Cl)c3)c2)no1", "% Inhibition": -23, "Z score": 4.01}
{"smiles": "CC1CCN(C(=O)c2cc3nc(-c4ccco4)cc(C(F)(F)F)n3n2)C(C)C1", "note": "(configuration not stated)", "% Inhibition": -14, "Z score": 2.24}
{"smiles": "CCN1C[C@@H](CN(C)Cc2nc(-c3ccsc3)oc2C)CC1=O", "% Inhibition": -16, "Z score": 2.06}
{"smiles": "Cc1ccc(CCNC(=O)[C@@H]2CCCN2C(=O)C2CCCCC2)o1", "% Inhibition": -18, "Z score": 2.29}
{"smiles": "CNc1nc(N2CCN(Cc3ccc(C)o3)[C@@H](CCO)C2)nc2c1CCC2", "% Inhibition": -3, "Z score": 0.61}
{"smiles": "CC(C)c1nccn1CC(=O)N[C@H]1[C@@H]2CN(Cc3ccccc3)C[C@@H]21", "% Inhibition": 0, "Z score": -0.06}
{"smiles": "COCCOCCCNc1nccnc1NCCCOCCOC", "% Inhibition": -5, "Z score": 0.81}
{"smiles": "COCCC1(CNc2ccc(C#N)nc2)CCCC1", "% Inhibition": -8, "Z score": 1.09}
{"smiles": "CCN1CCCN(C(=O)C(=O)c2cccn2C)CC1", "% Inhibition": -10, "Z score": 1.4}
{"smiles": "CCS(=O)(=O)N(CC(=O)N(Cc1ccc(C)cc1)C1CCN(C(=O)CCC2CCCC2)CC1)CC(C)C", "% Inhibition": -11, "Z score": 1.44}
{"smiles": "Cc1nsc(N2CCC[C@H]2CCc2ccccn2)n1", "% Inhibition": 0, "Z score": -0.07}
{"smiles": "CCn1cc(OC(=O)c2cccnc2OC)cn1", "% Inhibition": -7, "Z score": 1.02}
{"smiles": "COc1ccc(-c2csc(N(C)c3ccc(O)cc3)n2)cc1", "% Inhibition": -11, "Z score": 1.52}
{"smiles": "CCN(Cc1cnn(CC)c1)C(=O)c1ccc(-c2nccc(N)c2OC)cc1", "% Inhibition": -17, "Z score": 1.46}
{"smiles": "COc1nc(CNS(=O)(=O)c2ccc(C)c(C)c2)nc(OC)n1", "% Inhibition": 3, "Z score": -0.39}
{"smiles": "CC(NC(=O)NCC(O)C1CCOCC1)c1csc2ccccc12", "note": "(configuration not stated)", "% Inhibition": -1, "Z score": 0.11}
{"smiles": "C[C@H]1CN(c2nccnc2OC2CCC2)CCS(=O)(=O)C1", "% Inhibition": -7, "Z score": 0.75}
{"smiles": "Nc1nnc(CCNC(=O)c2conc2-c2ccccc2)s1", "% Inhibition": -7, "Z score": 1.02}
{"smiles": "NC(=O)c1ccc(CNc2ccc3cccc(Br)c3n2)o1", "% Inhibition": -12, "Z score": 1.4}
{"smiles": "Cc1cccnc1C[C@H](C)N(C)C(=O)Nc1ccccc1N1CCOC1=O", "% Inhibition": -8, "Z score": 1.44}
{"smiles": "CN(Cc1ccccc1F)Cc1nnc2n1CCNC2=O", "% Inhibition": -14, "Z score": 1.39}
{"smiles": "c1ccc(-c2nc(CN[C@H]3CCc4ccccc4OC3)cs2)nc1", "% Inhibition": 10, "Z score": -1.21}
{"smiles": "CO[C@@]1(C)CCCN(C(=O)Nc2cc(F)ccc2OC(F)F)CC1", "% Inhibition": 3, "Z score": -0.64}
{"smiles": "NC(=O)[C@@H]1CN(c2nc(C3CCCC3)nc3c2CNC3)CCO1", "% Inhibition": -13, "Z score": 1.58}
{"smiles": "CC(C)(C)C(=O)Nc1ccccc1C(=O)NCCC(=O)O", "% Inhibition": -2, "Z score": 0.38}
{"smiles": "CCN(C(=O)Cc1cccc(Br)c1)c1cccnc1", "% Inhibition": -3, "Z score": 0.45}
{"smiles": "O=C(Nc1cccnc1)c1cccc(S(=O)(=O)N2CCCCC2)c1", "% Inhibition": -5, "Z score": 0.95}
{"smiles": "COc1cc(NC(=O)c2cccn2-c2cccnc2)cc(OC)c1OC", "% Inhibition": -16, "Z score": 1.59}
{"smiles": "Cc1ccc(S(=O)(=O)Nc2sc3c(c2C(N)=O)CCC3)c(C)c1", "% Inhibition": -9, "Z score": 0.89}
{"smiles": "Cc1cc(NC(=O)CCn2cc(Br)ccc2=O)n(C)n1", "% Inhibition": -6, "Z score": 0.7}
{"smiles": "OCc1nc(CCNc2ccncc2F)no1", "% Inhibition": 11, "Z score": -1.25}
{"smiles": "Cc1nnc(N2CCC([C@@H](O)CCc3ccccc3)CC2)o1", "% Inhibition": -22, "Z score": 2.12}
{"smiles": "CC(C)C(=O)N1CCOc2ccc(N(C)C)cc2C1", "% Inhibition": -2, "Z score": 0.44}
{"smiles": "Cc1nn(C)c(Oc2cccnc2)c1NS(=O)(=O)C1CCOC1C", "note": "(configuration not stated)", "% Inhibition": 3, "Z score": -0.44}
{"smiles": "COc1ccc(-c2nnc(Cc3nc(-c4ccc(F)cc4)no3)o2)cc1OC", "% Inhibition": -9, "Z score": 1.14}
{"smiles": "Cc1ccc2c(Nc3cccc(Cl)c3)c(-c3nc(C)no3)cnc2n1", "% Inhibition": 9, "Z score": -1.11}
